Out of some 44,000 compounds screened, about 340 (0.77%) were called active. Roughly 5% stayed inconclusive and do not appear here. Calls come from the whole dose curve; as a rule, active = well fitted inhibition curve with a large enough effect; inconclusive = small, poorly fitted or top-dose-only effect; inactive = flat fitted curve, though single readings scatter. This is one part of the list.
Test: Acumen qHTS Assay for Inhibitors of the mTORC1 Signaling Pathway in MEF (Tsc2-/-, p53-/-) Cells: Sytravon;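 note: plate controls were DMSO for no effect and rapamycin for full effect; nearly all actives have a fitted effect of over 50% in size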
Conditions: phospho-rpS6 immunofluorescence/PI, 24 h; series mostly up to 38.3 µM; activity change, negative = inhibition: at the top concentration
Outline: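 Tsc2-/-, p53-/- mouse embryonic fibroblasts (empty-vector line) exposed to compound 24 hrs at 37 C, fixed, immunostained for phospho-rpS6 and counterstained with propidium iodide. Acumen laser scanning gives % positive cells from Alexa 488/PI ratio, thresholded using 7.5 nM rapamycin; PI count gives viability.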

Activity change, negative = inhibition, inactive:
O=C(CCOc1ccccc1)N(Cc1cccnc1)c1nc2c(F)cc(F)cc2s1 -19%
Nc1nnc(SCC(=O)Nc2ccc(Cl)cc2)s1 5.61%
COc1ccc(CNC(=O)c2cnc3sc(N4CCOCC4)nn3c2=O)cc1 -0.307%
COc1cc(OC)c(NC(=O)N2CCSc3ccccc32)cc1Cl -2.2%
O=C(CSC1=Nc2ccccc2C2=NC(CCC(=O)NC3CCCCC3)C(=O)N12)Nc1cccc(C(F)(F)F)c1 (stereo not drawn) 4.84%
COc1ccc(C(=O)Nc2cc3c(cc2C(=O)c2ccccc2Cl)OCCO3)cc1 -7.52%
CCOC(=O)c1c(C)oc2nc(C)nc(NCCCN3CCN(c4ccccc4)CC3)c12 -8.97%
COC(=O)C(CCSC)NC(=O)C1CCN(c2ncnc3c2nc2n3CCCCC2)CC1 (stereo not drawn) 0.461%
CCOc1ccc(NC(=O)CCc2c(C)nc3nc(C)nn3c2C)cc1 -0.551%
CCOC(=O)c1c(NC(=O)CCCOc2ccccc2C)sc2c1CCC(C)C2 (stereo not drawn) 2.68%
Fc1ccc(-n2ncc3c(NC4CCCCCC4)ncnc32)cc1 -14.8%
COc1ccccc1CNC(=O)c1ccc(Cn2c(SCc3ccccc3)nc3cccnc32)cc1 -5.81%
CCNC(=O)CC1C(=O)N(c2ccc(F)cc2)C(=O)N1CCOC (stereo not drawn) -0.552%
N#Cc1ccccc1CN1C(=O)c2ccccc2Sc2ccc(C(=O)OCc3ccco3)cc21 -17.1%
O=C(CCc1ccccc1)NCc1nc2cccnc2n1Cc1ccc(F)cc1 -5.01%
CCOc1ccc(C(=O)N2CCC(c3nnc(-c4ccccc4OC)o3)CC2)cc1 -5.81%
CCOC(=O)N1CCc2c(sc3c2c(=O)n(-c2ccccc2)c(=O)n3CC(=O)Nc2ccc(OC)cc2OC)C1 1.47%
COc1ccc(NC(=O)CN2CCN(Cc3ccccc3)S2(=O)=O)c(OC)c1 0%
CCOc1ccc(OCC)c(NC(=O)c2cc(S(=O)(=O)N3CCCC3)cn2C)c1 -1.08%
CCC(Sc1nc2ncccc2[nH]1)C(=O)Nc1ccccc1F (stereo not drawn) -4.08%
COc1ccc2c(CNCc3cccs3)c(C(=O)O)n(Cc3ccccc3C)c2c1 0.895%
O=C(OCC1CCCO1)c1ccc2c(c1)N(Cc1ccc(F)cc1)C(=O)c1ccccc1S2(=O)=O (stereo not drawn) 13.7%
COc1cc(OC)c(N(C)C(=O)c2cc3c(s2)-c2ccccc2OC3)cc1Cl 3.73%
CCC(=O)NCc1nc2ccccc2n1Cc1ccccc1 -5.85%
Cc1ccc(Cl)cc1NC(=O)N1CCC(CN2CCc3ccccc3C2)CC1 1.01%
CCCCOc1ccc(C(=O)Nc2ccc3c(c2)N(C(C)=O)CCC3)cc1 0%
Cn1cccc1-c1cc2n(n1)CCC(=O)N2CC(=O)Nc1ccc(F)cc1Cl 0.563%
Cc1ccc(S(=O)(=O)N2CCCc3cc(NC(=O)c4cccc(Cl)c4)ccc32)cc1 -0.154%
COC(=O)c1ccc2c(=O)n(CCCCCC(=O)N3CCN(c4cccc(C)c4C)CC3)c(=O)[nH]c2c1 -0.655%
CCOC(=O)c1c(C)[nH]c(C)c1S(=O)(=O)N1CCC(C(=O)NCc2ccc(OC)cc2)CC1 -1.65%
Cc1c(NC(=O)Cc2ccccc2)cccc1-c1nc2cccnc2s1 -8.12%
Cn1nc(-c2ccccc2F)c2cc(C(=O)N3CCN(c4ccccc4F)CC3)sc21 -14.1%
CCOc1ccc(NC(=O)c2cc3nc(-c4ccc(OC)cc4)cc(C(F)(F)F)n3n2)cc1 -0.209%
COCCCNc1nc2c(-c3cccc(Br)c3)nnn2c2ccccc12 -1.08%
O=C(CSc1nc2c([nH]c3ccccc32)c(=O)n1-c1ccc(F)cc1)Nc1ccc2c(c1)OCCO2 -2.02%
CCS(=O)(=O)N1CCc2cc(C(=O)NCc3ccc(C)cc3)ccc21 -0.494%
CCC(Cn1nnc2ccccc2c1=O)NC(=O)Nc1ccccc1Cl (stereo not drawn) -8.7%
Cc1ccc(S(=O)(=O)N(CC(O)Cn2c3ccccc3c3ccccc32)c2cccc(C(=O)NCCO)c2)cc1 (stereo not drawn) 1.77%
COc1ccc(-c2nc3n(n2)C(c2ccccc2)C(C(=O)Nc2cccnc2)=C(C)N3)cc1 (stereo not drawn) 1.24%
COCCNC(=O)CN1C(=O)CCn2nc(-c3cn(C)c4ccccc34)cc21 -4.03%
CCOC(=O)N1CCN(CCC(=O)Nc2cccc(F)c2)CC1 0.402%
Cc1c(C(=O)NCc2ccc(Cl)cc2)sc2nc3n(c(=O)c12)CCC3 3.38%
Cc1ccc(NC(=O)CC(c2ccc(F)cc2)N2Cc3ccccc3C2=O)cc1C (stereo not drawn) -7.79%
Cc1c(C(=O)O)oc2c1-c1nn(Cc3ccccc3Cl)cc1CC2 -2.93%
COc1cc([C@@H]2Nc3c(F)cccc3[C@@H]3C=CC[C@@H]32)cc(Br)c1OC -0.237%
COc1ccc2c(Sc3ccc(C)cc3)c(C(=O)NC(C)c3ccccc3)[nH]c2c1 (stereo not drawn) -13.1%
CCc1ccccc1NC(=O)c1ccc(F)c(S(=O)(=O)N2CCN(c3ccccc3OC)CC2)c1 1.28%
Cc1ccc(Sc2ccc(N3CCC(C(=O)Nc4ccc(Cl)cc4)CC3)nn2)cc1 -2.64%
